The text below walks through data of article PMC6005816.

Test [1] deals with T1, VPS33A Y438D I441K-FLAG-BirA* (human) (UniProt Q96AX1).
T1 sequence: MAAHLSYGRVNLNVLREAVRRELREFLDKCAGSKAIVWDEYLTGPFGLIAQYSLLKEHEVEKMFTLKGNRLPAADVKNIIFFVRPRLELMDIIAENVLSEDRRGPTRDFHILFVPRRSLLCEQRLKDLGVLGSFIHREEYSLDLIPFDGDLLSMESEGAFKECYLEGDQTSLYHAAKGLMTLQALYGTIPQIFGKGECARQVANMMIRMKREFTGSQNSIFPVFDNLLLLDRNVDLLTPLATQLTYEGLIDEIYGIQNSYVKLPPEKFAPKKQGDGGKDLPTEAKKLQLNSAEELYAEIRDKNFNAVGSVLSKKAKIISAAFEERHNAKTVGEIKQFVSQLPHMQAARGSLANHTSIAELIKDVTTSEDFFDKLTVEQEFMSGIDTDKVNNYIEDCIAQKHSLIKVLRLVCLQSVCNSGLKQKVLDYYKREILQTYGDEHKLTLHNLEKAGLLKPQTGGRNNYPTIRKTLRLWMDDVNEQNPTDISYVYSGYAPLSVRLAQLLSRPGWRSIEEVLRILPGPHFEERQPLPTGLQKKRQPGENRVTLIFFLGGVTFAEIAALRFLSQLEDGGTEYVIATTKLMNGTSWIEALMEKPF
Nature of the test: co-IP; anti-FLAG M2 magnetic resin on lysates of stable HEK293 Flp-In T-REx cells expressing FLAG-BirA*-tagged bait (tetracycline-induced); 10 mM Tris-HCl pH 7.5, 150 mM NaCl, 0.5 mM EDTA, 0.5% NP-40; 1 h at 4 °C; eluted with FLAG peptide; blotted for endogenous protein.

In test [2] the target is T2, VPS33A-FLAG-BirA* (human) (UniProt Q96AX1).
T2 sequence: T1 sequence with D438Y, K441I
Described as above.

Where a chain is given by its changes, count along the chain named. No constants are given. Whether binding was seen depends on the method and setting. In cells and extracts the contact can be indirect. Some entries that bind do so weakly or less than the wild type. Where a sequence is shown, tags or fusion partners need not be part of it.

B1: endogenous VPS16 (protein, UniProt Q9H269 1-839)
chain: MDCYTANWNPLGDSAFYRKYELYSMDWDLKEELRDCLVAAAPYGGPIALLRNPWRKEKAASVRPVLDIYSASGMPLASLLWKSGPVVSLGWSAEEELLCVQEDGAVLVYGLHGDFRRHFSMGNEVLQNRVLDARIFHTEFGSGVAILTGAHRFTLSANVGDLKLRRMPEVPGLQSAPSCWTVLCQDRVAHILLAVGPDLYLLDHAACSAVTPPGLAPGVSSFLQMAVSFTYRHLALFTDTGYIWMGTASLKEKLCEFNCNIRAPPKQMVWCSRPRSKERAVVVAWERRLMVVGDAPESIQFVLDEDSYLVPELDGVRIFSRSTHEFLHEVPAASEEIFKIASMAPGALLLEAQKEYEKESQKADEYLREIQELGQLTQAVQQCIEAAGHEHQPDMQKSLLRAASFGKCFLDRFPPDSFVHMCQDLRVLNAVRDYHIGIPLTYSQYKQLTIQVLLDRLVLRRLYPLAIQICEYLRLPEVQGVSRILAHWACYKVQQKDVSDEDVARAINQKLGDTPGVSYSDIAARAYGCGRTELAIKLLEYEPRSGEQVPLLLKMKRSKLALSKAIESGDTDLVFTVLLHLKNELNRGDFFMTLRNQPMALSLYRQFCKHQELETLKDLYNQDDNHQELGSFHIRASYAAEERIEGRVAALQTAADAFYKAKNEFAAKATEDQMRLLRLQRRLEDELGGQFLDLSLHDTVTTLILGGHNKRAEQLARDFRIPDKRLWWLKLTALADLEDWEELEKFSKSKKSPIGYLPFVEICMKQHNKYEAKKYASRVGPEQKVKALLLVGDVAQAADVAIEHRNEAELSLVLSHCTGATDGATADKIQRARAQAQKK
As for B1, the binding entry in test [1] is reported as “no binding”; in test [2] it was “binds”.
